Measured values taken from US20240228656A1 (HARPOON THERAPEUTICS, published 2024).

B1: huEpCAM:Fc (Fc fusion)
chain: QEECVCENYKLAVNCFVNNNRQCQCTSVGAQNTVICSKLAAKCLVMKAEMNGSKLGRRAKPEGALQNNDGLYDPDCDESGLFKAKQCNGTSMCWCVNTAGVRRTDKDTEITCSERVRTYWIIIELKHKAREKPYDSKSLRTALQKEITTRYQLDPKFITSILYENNVITIDLVQNSSQKTQNDVDIADVAYYFEKDVKGESLFHSKKMDLTVNGEQLDLDPGQTLIYYVDEKAPEFSMQGLKDYKDDDDKGGGGS[human IgG1 Fc not written out]
modifications: biotinylated
notes: also called 1.7 Bn huEpCAM aa22-265 FLAG huIgG1 Fc; biotin-huEpCAM-Fc
B2: cyEpCAM:Fc (Fc fusion)
chain: QKECVCENYKLAVNCFLNDNGQCQCTSIGAQNTVLCSKLAAKCLVMKAEMNGSKLGRRAKPEGALQNNDGLYDPDCDESGLFKAKQCNGTSTCWCVNTAGVRRTDKDTEITCSERVRTYWIIIELKHKAREKPYDVQSLRTALEEAIKTRYQLDPKFITNILYEDNVITIDLVQNSSQKTQNDVDIADVAYYFEKDVKGESLFHSKKMDLRVNGEQLDLDPGQTLIYYVDEKAPEFSMQGLKDYKDDDDKGGGGS[human IgG1 Fc not written out]
modifications: biotinylated
notes: also called 1.9-Bn cyEpCAM aa24-265 FLAG huIgG1 Fc; biotin-cyEpCAM-Fc

How the values were obtained:
Assay in all cases: binding assay with kinetics, affinity summary (instrument not stated)
[1] = biological target: T1, EpCAM H90 Mask27 L040 (EpCAM targeting ProTriTAC with H90)
T1 construct: trispecific prodrug: masked anti-albumin sdAb-L040-anti-CD3 scFv-anti-EpCAM sdAb H90-His6

[2] = biological target: T2, EpCAM H90.2 Mask27 L040 (EpCAM targeting ProTriTAC with H90.2)
T2 construct: trispecific prodrug; also called H90.2 ProTriTAC (L040)

[3] = biological target: T3, EpCAM H13 Mask27 L040 (EpCAM targeting ProTriTAC with H13)
T3 construct: trispecific prodrug: masked anti-albumin sdAb-cleavable linker L040-anti-CD3 scFv-anti-EpCAM sdAb H13-His6; also called H13 ProTriTAC (L040)
T3 sequence (chain, as listed by the source): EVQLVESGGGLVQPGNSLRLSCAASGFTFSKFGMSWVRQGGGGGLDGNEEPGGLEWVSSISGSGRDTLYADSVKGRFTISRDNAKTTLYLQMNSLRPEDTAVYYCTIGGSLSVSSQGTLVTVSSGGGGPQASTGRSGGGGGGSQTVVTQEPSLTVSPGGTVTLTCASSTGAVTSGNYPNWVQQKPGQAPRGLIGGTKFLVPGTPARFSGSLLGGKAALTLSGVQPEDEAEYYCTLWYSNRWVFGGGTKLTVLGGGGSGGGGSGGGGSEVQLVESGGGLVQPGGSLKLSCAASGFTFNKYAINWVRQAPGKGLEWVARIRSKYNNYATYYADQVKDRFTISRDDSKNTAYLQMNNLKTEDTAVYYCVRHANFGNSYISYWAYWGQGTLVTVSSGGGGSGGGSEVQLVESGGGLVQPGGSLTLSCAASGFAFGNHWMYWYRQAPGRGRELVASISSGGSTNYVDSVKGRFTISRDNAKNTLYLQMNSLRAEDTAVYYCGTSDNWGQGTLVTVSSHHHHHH

T1 sequence (chain, as listed by the source): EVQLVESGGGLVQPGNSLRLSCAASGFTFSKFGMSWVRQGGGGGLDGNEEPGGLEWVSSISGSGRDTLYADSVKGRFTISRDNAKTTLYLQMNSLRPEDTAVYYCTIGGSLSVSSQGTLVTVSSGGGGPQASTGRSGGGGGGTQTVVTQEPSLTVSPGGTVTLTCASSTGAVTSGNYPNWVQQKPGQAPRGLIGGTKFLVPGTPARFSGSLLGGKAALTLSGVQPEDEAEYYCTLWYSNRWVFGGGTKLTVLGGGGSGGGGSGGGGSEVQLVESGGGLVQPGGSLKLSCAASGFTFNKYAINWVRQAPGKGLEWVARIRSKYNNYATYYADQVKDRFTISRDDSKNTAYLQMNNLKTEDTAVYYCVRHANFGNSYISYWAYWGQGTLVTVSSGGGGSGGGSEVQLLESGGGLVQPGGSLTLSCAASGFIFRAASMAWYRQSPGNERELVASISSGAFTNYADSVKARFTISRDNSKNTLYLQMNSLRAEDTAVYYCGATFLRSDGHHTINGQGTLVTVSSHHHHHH
T2 sequence (chain, as listed by the source): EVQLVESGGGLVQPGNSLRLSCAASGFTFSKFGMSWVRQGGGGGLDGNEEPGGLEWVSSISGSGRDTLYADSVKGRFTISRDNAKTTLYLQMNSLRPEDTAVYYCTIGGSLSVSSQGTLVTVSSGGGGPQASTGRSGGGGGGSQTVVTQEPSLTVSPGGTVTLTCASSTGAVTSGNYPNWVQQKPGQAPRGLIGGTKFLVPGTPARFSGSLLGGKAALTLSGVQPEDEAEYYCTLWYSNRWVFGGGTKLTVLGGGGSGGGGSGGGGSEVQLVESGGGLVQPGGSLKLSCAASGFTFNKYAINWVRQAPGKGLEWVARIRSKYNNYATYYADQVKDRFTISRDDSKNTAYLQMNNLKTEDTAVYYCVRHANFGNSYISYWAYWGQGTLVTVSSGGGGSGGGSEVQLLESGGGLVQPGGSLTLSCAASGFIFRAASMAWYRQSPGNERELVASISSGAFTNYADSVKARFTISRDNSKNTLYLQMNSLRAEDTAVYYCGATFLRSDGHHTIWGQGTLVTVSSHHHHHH

Binder | Kd [1] [nM] | Kd [2] [nM] | Kd [3] [nM]
B1 | 0.23 | 0.1 | 
B2 | 0.42 | 0.21 | 137
